In all, about 310,000 compounds went through this assay and about 2,200 (0.71%) showed an effect of 50% or more. The effect is printed as a negative number. The list shows a part of the results.
biological target: human ether-à-go-go-related gene (hERG) potassium channel (human, UniProt Q12809); assay: primary screen, population patch clamp on CHO cells stably expressing hERG
Sequence (Q12809 whole entry, looked up): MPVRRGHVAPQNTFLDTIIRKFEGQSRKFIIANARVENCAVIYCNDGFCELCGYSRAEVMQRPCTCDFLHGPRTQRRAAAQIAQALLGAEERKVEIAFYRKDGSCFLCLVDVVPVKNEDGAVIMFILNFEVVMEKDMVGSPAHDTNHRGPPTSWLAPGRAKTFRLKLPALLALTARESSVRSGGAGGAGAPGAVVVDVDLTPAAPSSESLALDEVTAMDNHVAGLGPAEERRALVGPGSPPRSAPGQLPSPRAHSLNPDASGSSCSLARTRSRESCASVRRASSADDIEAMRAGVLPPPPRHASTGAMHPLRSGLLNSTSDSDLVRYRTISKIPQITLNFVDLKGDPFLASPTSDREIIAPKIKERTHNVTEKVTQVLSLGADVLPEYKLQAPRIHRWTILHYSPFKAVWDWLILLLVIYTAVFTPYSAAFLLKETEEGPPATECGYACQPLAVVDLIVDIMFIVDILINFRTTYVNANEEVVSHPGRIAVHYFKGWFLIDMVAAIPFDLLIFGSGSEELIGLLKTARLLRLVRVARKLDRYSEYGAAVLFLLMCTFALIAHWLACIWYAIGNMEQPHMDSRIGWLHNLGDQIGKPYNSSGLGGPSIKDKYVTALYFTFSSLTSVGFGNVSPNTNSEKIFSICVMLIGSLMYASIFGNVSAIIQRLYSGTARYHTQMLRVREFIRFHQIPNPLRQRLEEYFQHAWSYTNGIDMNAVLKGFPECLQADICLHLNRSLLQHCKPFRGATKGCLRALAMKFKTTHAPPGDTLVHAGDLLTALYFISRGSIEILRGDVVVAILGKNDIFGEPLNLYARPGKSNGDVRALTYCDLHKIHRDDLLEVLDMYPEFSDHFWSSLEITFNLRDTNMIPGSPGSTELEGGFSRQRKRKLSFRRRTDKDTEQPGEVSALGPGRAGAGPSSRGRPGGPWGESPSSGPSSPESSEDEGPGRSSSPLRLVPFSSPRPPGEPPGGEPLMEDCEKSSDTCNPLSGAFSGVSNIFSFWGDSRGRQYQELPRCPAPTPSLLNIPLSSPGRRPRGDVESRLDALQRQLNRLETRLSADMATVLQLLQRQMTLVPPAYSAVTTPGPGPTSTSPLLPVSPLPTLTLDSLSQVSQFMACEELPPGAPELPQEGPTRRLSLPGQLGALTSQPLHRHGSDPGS

**Q.** With COc1ccccc1N1CCN(c2nc(C)cc(=O)[nH]2)CC1 as the compound, how does the “hERG current change (%, negative = inhibition) at 1uM” value read?
**A.** 13.4%

**Q.** O=[N+]([O-])c1cc([N+](=O)[O-])c2nonc2c1Nc1ccccc1O was tested. Which “hERG current change (%, negative = inhibition) at 1uM” value did it give?
**A.** 8.28%

**Q.** How did the “hERG current change (%, negative = inhibition) at 1uM” value turn out when COc1ccc(-n2c(O)c(/C(C)=N/Nc3ccccc3)c(=O)[nH]c2=O)cc1 was run?
**A.** 7.9%

**Q.** For Cc1ccccc1S(=O)(=O)Cc1ccc(C(=O)NC(C)c2ccc3c(c2)OCCO3)o1 (centres unmarked), which “hERG current change (%, negative = inhibition) at 1uM” value is on record?
**A.** 7.17%

**Q.** Cc1csc(NC(=O)/C=C/c2ccco2)n1 was tested. Which “hERG current change (%, negative = inhibition) at 1uM” value did it give?
**A.** 8.56%

**Q.** Cc1sc2nc(SCC(=O)N3CCN(CCO)CC3)n(-c3ccccc3)c(=O)c2c1C was tested. Which “hERG current change (%, negative = inhibition) at 1uM” value did it give?
**A.** 7.1%

**Q.** How did the “hERG current change (%, negative = inhibition) at 1uM” value turn out when O=C(OCCN1C(=O)c2ccccc2C1=O)C1CCN(S(=O)(=O)c2cccs2)CC1 was run?
**A.** 7.84%

**Q.** How did the “hERG current change (%, negative = inhibition) at 1uM” value turn out when CC(C)c1ccc(NC(=S)NC2CC3C=CC2C3)cc1 (centres unmarked) was run?
**A.** -7.38%

**Q.** CN1C(=O)C(C)(C)c2cc(S(=O)(=O)N3CCCC3C(=O)NCc3ccccc3Cl)ccc21 (centres unmarked) was tested. Which “hERG current change (%, negative = inhibition) at 1uM” value did it give?
**A.** 4.54%

**Q.** How did the “hERG current change (%, negative = inhibition) at 1uM” value turn out when Cc1ccc(-c2nn(CC(=O)Nc3ccc4c(c3)nc3n4CCOC3)c(=O)c3ccccc23)cc1 was run?
**A.** -15.4%

**Q.** CC(NC(=O)C(=O)N/N=C\c1cccc([N+](=O)[O-])c1)c1ccccc1 (centres unmarked) was tested. Which “hERG current change (%, negative = inhibition) at 1uM” value did it give?
**A.** 7.56%

**Q.** For COc1nc(C)cc(C)c1S(=O)(=O)c1ccc(Cl)cc1, which “hERG current change (%, negative = inhibition) at 1uM” value is on record?
**A.** 8.93%

**Q.** COc1ccc(-c2csc(/C(C#N)=C\c3ccc(O)c([N+](=O)[O-])c3)n2)cc1OC was tested. Which “hERG current change (%, negative = inhibition) at 1uM” value did it give?
**A.** 10.7%

**Q.** For CC(C)C(NC(=O)CN1C(=O)c2cccc3cccc1c23)C(C)C, which “hERG current change (%, negative = inhibition) at 1uM” value is on record?
**A.** 16.4%

**Q.** With Cc1cccnc1NC(=O)CCNC(=O)c1ccccc1Cl as the compound, how does the “hERG current change (%, negative = inhibition) at 1uM” value read?
**A.** 48.8%

**Q.** Which “hERG current change (%, negative = inhibition) at 1uM” value does the source give for COc1oc(-c2ccccc2)nc1C(F)(F)F here?
**A.** 1.28%

**Q.** With C/C(CC(=O)Nc1cccc2c1CCCC2)=N\NC(=O)Cc1ccccc1 as the compound, how does the “hERG current change (%, negative = inhibition) at 1uM” value read?
**A.** 15.2%

**Q.** Cc1csc(SCc2nc3scc(-c4ccccc4)c3c(=O)[nH]2)n1 was tested. Which “hERG current change (%, negative = inhibition) at 1uM” value did it give?
**A.** 5.18%

**Q.** Which “hERG current change (%, negative = inhibition) at 1uM” value does the source give for CCCCOC(=O)CSCC(=O)N1N=C(c2cccs2)CC1c1ccc(F)cc1 (centres unmarked) here?
**A.** 1.7%

**Q.** With Cn1cc(/C=N/NC(=O)c2ccccc2O)c2ccccc21 as the compound, how does the “hERG current change (%, negative = inhibition) at 1uM” value read?
**A.** 9.93%

**Q.** How did the “hERG current change (%, negative = inhibition) at 1uM” value turn out when Cc1c(C(=O)NCc2ccccc2)oc2ccc(S(=O)(=O)N3CCC4(CC3)OCCO4)cc12 was run?
**A.** 6.63%

**Q.** With CC(=O)Nc1ccc2ccccc2c1 as the compound, how does the “hERG current change (%, negative = inhibition) at 1uM” value read?
**A.** 8.01%

**Q.** With C[n+]1c2n(c3ccccc31)N=C(c1cc(C(C)(C)C)c(O)c(C(C)(C)C)c1)CS2.[Br-] as the compound, how does the “hERG current change (%, negative = inhibition) at 1uM” value read?
**A.** -63.5%

**Q.** COc1ccc(N2CCN(c3nc4c(C)cccn4c(=O)c3/C=C(\C#N)C(N)=O)CC2)cc1 was tested. Which “hERG current change (%, negative = inhibition) at 1uM” value did it give?
**A.** 11.2%

**Q.** How did the “hERG current change (%, negative = inhibition) at 1uM” value turn out when O=C(Nc1ccccc1F)c1ccc2c(c1)CCN2S(=O)(=O)c1ccccc1 was run?
**A.** 11.7%

**Q.** How did the “hERG current change (%, negative = inhibition) at 1uM” value turn out when CCCOC(=O)C1=C(C)OC23OC(N)=C(C#N)C12C(=O)c1ccccc13 (centres unmarked) was run?
**A.** -3.5%

**Q.** For Cc1ccc(C)c(NC(=O)NNC(=O)c2cc3ccccc3cc2O)c1, which “hERG current change (%, negative = inhibition) at 1uM” value is on record?
**A.** -3.83%

**Q.** With COc1ccccc1NC(=S)N(Cc1cccnc1)Cc1ccccc1Cl as the compound, how does the “hERG current change (%, negative = inhibition) at 1uM” value read?
**A.** -2.97%

**Q.** With Cc1ccc(S(=O)(=O)N2CCOC23CCN(C(=O)c2ccc(Cl)cc2Cl)CC3)cc1 as the compound, how does the “hERG current change (%, negative = inhibition) at 1uM” value read?
**A.** 10.3%

**Q.** How did the “hERG current change (%, negative = inhibition) at 1uM” value turn out when N#C/C(=C(/O)Cc1cccc2ccccc12)c1nc2ccccc2s1 was run?
**A.** 19.2%

**Q.** With CC1CCCCN1C(=O)Cn1cc(C(=O)c2ccco2)c2ccccc21 (centres unmarked) as the compound, how does the “hERG current change (%, negative = inhibition) at 1uM” value read?
**A.** 7.18%

**Q.** For COc1ccc(C(=O)N2CCN(C3CCCCC3)CC2)c(OC)c1, which “hERG current change (%, negative = inhibition) at 1uM” value is on record?
**A.** -75%

**Q.** For O=C(COc1ccc(/C=N/NC(=O)c2ccncc2)cc1)Nc1ccccc1, which “hERG current change (%, negative = inhibition) at 1uM” value is on record?
**A.** 10.1%

**Q.** For COc1ccccc1NC(=O)Cc1noc(CSc2nnc(C)s2)n1, which “hERG current change (%, negative = inhibition) at 1uM” value is on record?
**A.** 9.48%

**Q.** For Cc1ccc(NC(=O)C(C)[n+]2ccccc2)cc1[N+](=O)[O-].[Br-] (centres unmarked), which “hERG current change (%, negative = inhibition) at 1uM” value is on record?
**A.** 6.91%

**Q.** CN(C)CCN(C(=O)C1CCN(S(=O)(=O)c2cccs2)CC1)c1nc2c(F)cccc2s1.Cl was tested. Which “hERG current change (%, negative = inhibition) at 1uM” value did it give?
**A.** 13.4%

**Q.** Which “hERG current change (%, negative = inhibition) at 1uM” value does the source give for O=C(CCC(=O)OC(C(=O)c1ccccc1)c1ccccc1)Nc1ccccc1 (centres unmarked) here?
**A.** 4.13%

**Q.** Cc1ccc(/C=C2/NC(=O)N(Cc3ccccc3)C2=O)s1 was tested. Which “hERG current change (%, negative = inhibition) at 1uM” value did it give?
**A.** -0.227%

**Q.** With Cc1ccc2nc3c(c(Nc4ccccc4)c2c1)CCC3.Cl as the compound, how does the “hERG current change (%, negative = inhibition) at 1uM” value read?
**A.** -19.6%

**Q.** How did the “hERG current change (%, negative = inhibition) at 1uM” value turn out when CSc1nsc(/C=C/Nc2ccc(Cl)cc2)c1C#N was run?
**A.** 11.8%

**Q.** How did the “hERG current change (%, negative = inhibition) at 1uM” value turn out when Cc1c2cc(O)c(=O)cc-2oc2cc(O)c(O)cc12 was run?
**A.** -1.04%

**Q.** How did the “hERG current change (%, negative = inhibition) at 1uM” value turn out when COc1ccc(C(=O)NCc2nnc(SCC(=O)Nc3nnc(C)s3)o2)cc1 was run?
**A.** 4.45%

**Q.** With O=Nc1c(O)n(Cc2ccc(Cl)cc2Cl)c2ccccc12 as the compound, how does the “hERG current change (%, negative = inhibition) at 1uM” value read?
**A.** 7%

**Q.** For Cc1cc(Cl)nc(Cl)c1C(=O)NCCc1ccccc1, which “hERG current change (%, negative = inhibition) at 1uM” value is on record?
**A.** 4.19%

— publication PMC4336329 (PLoS ONE, 2015)
